Among the data in PubChem BioAssay AID488969 (Vanderbilt High Throughput Screening Facility, 2010) are z-score values, retold here.

Over roughly 110,000 compounds, “z-score” has its median near -0.1; the highest 2% begin near 2. This is one part of the list. Calls of active or inactive are those of the source.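 Rule for the calls: active = z-score in the third read window above 3 or below -3; inactive = the rest.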

This test deals with Metabotropic glutamate receptor 8 (Rattus norvegicus) (UniProt P70579). Description: rat mGluR8 modulators via GIRK flux, primary screen, cell-based, thallium flux, HTS (AID 488969). The following applies: HEK293 rat mGluR8, GIRK (G protein-gated inwardly rectifying potassium channel) thallium flux, FluoZin2; at 10 µM; stronger effect = higher value; submaximal glutamate (EC20) added with thallium.
UniProt P70579, sequence (P70579 whole entry, looked up): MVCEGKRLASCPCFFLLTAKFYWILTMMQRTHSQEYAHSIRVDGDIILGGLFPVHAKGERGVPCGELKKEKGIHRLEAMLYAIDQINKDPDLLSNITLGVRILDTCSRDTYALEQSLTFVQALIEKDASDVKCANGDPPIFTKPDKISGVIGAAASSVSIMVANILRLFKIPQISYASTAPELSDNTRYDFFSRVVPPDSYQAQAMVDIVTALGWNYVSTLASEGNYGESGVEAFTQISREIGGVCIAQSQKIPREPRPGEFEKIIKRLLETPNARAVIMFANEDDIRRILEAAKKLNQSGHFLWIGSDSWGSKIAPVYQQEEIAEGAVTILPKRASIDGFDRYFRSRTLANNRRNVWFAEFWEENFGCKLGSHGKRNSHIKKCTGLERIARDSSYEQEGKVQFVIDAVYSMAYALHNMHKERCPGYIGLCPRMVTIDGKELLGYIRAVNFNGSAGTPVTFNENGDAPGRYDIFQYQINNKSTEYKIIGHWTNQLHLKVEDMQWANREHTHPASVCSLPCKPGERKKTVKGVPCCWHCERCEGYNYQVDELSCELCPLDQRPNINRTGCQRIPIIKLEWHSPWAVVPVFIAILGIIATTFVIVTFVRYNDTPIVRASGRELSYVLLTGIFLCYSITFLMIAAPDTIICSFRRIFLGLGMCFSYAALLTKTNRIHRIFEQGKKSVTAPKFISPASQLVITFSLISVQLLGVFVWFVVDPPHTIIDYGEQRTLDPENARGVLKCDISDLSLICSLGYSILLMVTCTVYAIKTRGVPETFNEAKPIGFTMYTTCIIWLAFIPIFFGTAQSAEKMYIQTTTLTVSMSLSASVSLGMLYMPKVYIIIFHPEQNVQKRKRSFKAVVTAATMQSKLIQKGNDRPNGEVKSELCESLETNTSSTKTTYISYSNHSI
For `Cc1nc2oc(C(=O)c3ccccc3)c(N)c2c2c1COC(C)(C)C2`, the z-score was 0.235.

In the case of `CCCC(=O)Nc1ccc(C(=O)Nc2nnc(COCC)s2)cc1`, the z-score is -0.294.

The compound `Cc1ccc(-c2nc3cc(Cl)ccc3o2)cc1` had a z-score of 0.239.

For the compound `COC(=O)c1ccc(COc2cccc(OC)c2)o1`, the z-score is -0.263.

Turning to `Cc1nn(-c2ccccc2)c(Cl)c1/C=N/Nc1ccc(S(=O)(=O)Nc2ccccc2C(=O)O)cc1[N+](=O)[O-]`, the z-score was -0.0266.

For the compound `CC(C)CN(CC(C)C)c1nc(N)c(C#N)c(CC#N)c1C#N`, the z-score was -0.436.

Take `CSc1ccccc1-n1nnnc1SCC(=O)Nc1ccccc1C`: the z-score is -0.294.

The compound `COc1cc(/C=C2\CC/C(=C\c3cc(OC)c(OC)c(OC)c3)C2=O)cc(OC)c1OC` displayed a z-score of 0.0382.

For the compound `CC1=C(C(=O)OCc2ccccc2)C(c2cccnc2)c2c(n(C)c(=O)n(C)c2=O)N1` (centres undefined), the z-score was -0.21.

For the compound `Cc1[nH]n(C(N)=S)c(=O)c1C(c1ccccc1)C(C#N)C#N` (centres undefined), the z-score is -0.000446.

In the case of `O=C(Nc1cc(Sc2ccccn2)cc([N+](=O)[O-])c1)c1cccc(Cl)c1`, the z-score is -0.308.

With `CC1=Nc2cc(C(=O)NCc3ccco3)ccc2Sc2ccc(C)cc21`, the z-score came to 0.368.

For the compound `Cc1cc(C)cc(NC(=S)N2CCN(c3ccc(F)cc3)CC2)c1`, the z-score is -0.0575.

Consider `O=C(CSc1nnc(-c2ccc(Cl)s2)o1)N1CCc2ccccc21`, for which the z-score is -0.569.

On to `CC1(C)CNC(=O)c2sc(N3CCOCC3)nc2C1`, for which the z-score came out at 0.579.

On to `CCCNC(=S)N1CCN(C(c2ccccc2)c2ccccc2)CC1`, for which the z-score is -0.141.

In the case of `CC(C)(C)C(=O)NC(Nc1cccc2cccnc12)C(Cl)(Cl)Cl` (centres undefined), the z-score was determined as 0.273.

With `Cc1ccc(-c2noc(CSc3nnnn3C3CCCCC3)n2)cc1`, the z-score is -0.0984.

Take `CCOC(=O)CSc1nnc(CNC(=O)c2ccc(OC)cc2)n1Cc1ccccc1`: the z-score amounted to 0.573.

`Cc1ccsc1/C=N/NC(=O)c1cccs1` yielded a z-score of 0.356.

On to `CC(=O)c1c(C)cc(C)c(CSc2nnc(-c3ccco3)o2)c1C`, for which the z-score is -0.15.

`COc1ccccc1N(CN1C(=O)c2ccccc2C1=O)C(=O)c1cccnc1` had a z-score of 0.271.

`CCOC(=O)c1ccc(N(C(=O)c2cnccn2)C(C(=O)NC2CCCCC2)c2cn(C)nc2C)cc1` (centres undefined): the z-score came out at 0.17.

In turn, `CC(NC(=O)c1ccc(F)cc1)c1ccc(F)cc1` (centres undefined) had a z-score of 0.139.

As to `COc1ccc(NC(=O)CCCn2c(=O)c3sccc3n(Cc3ccc(C)cc3)c2=O)cc1`, the z-score is -0.662.

In turn, `CCOC(=O)N1CCN(C(=O)c2ccc(N3CCCC3=O)cc2)CC1` gave a z-score of 0.0663.

On to `CCc1nnc(NC(=O)c2ccc(OC)cc2OC)s1`, for which the z-score was -0.3.

In turn, `Cc1cnc(NC(=O)c2ccc(-c3nc4ccccc4s3)o2)s1` displayed a z-score of 0.55.

For `CCOCCOC(=O)C1=C(C)N(C)C(=O)NC1c1ccccc1F` (centres undefined), the z-score was -0.146.

With `CCOc1ccc(-c2[nH]ncc2Oc2ccccc2OC)c(O)c1`, the z-score stood at 1.27.

On to `CC(Oc1ccc(-c2ccccc2)c(F)c1)c1ccn(S(=O)(=O)c2cccc3ccccc23)n1` (centres undefined), for which the z-score was -0.191.

Take `Cc1ccc(/C=C(\CCC(=O)O)c2nc3ccccc3s2)cc1[N+](=O)[O-]`: the z-score is -1.63.

As for `CCCCCC1CC1C(=O)N/N=C/c1ccc(N(C)C)cc1` (centres undefined), the z-score was -3.78e-05.

Take `CCc1ccc(-c2cc(C(F)(F)F)n3nc(C(=O)Nc4cnn(Cc5ccc(C)cc5)c4)cc3n2)s1`: the z-score is 0.425.

`CN(C)S(=O)(=O)N1CCN(CC(O)COc2ccc(C(=O)c3ccccc3)cc2)CC1` (centres undefined): the z-score is -0.781.

Consider `Cc1cc(C)cc(OCC(=O)N2N=C(C(F)(F)F)CC2(O)C(C)(C)C)c1` (centres undefined), for which the z-score was active: 4.9.

As for `Cc1ccc(C(c2nnnn2C2CCCC2)N2c3ccccc3CC2C)cc1` (centres undefined), the z-score was determined as 0.00667.

For the compound `Cc1cccc(N2C(=O)C3C4CC(C(Br)C4Br)C3C2=O)n1` (centres undefined), the z-score was -0.037.

`Cc1ccc(C(=O)NC(=S)Nc2cccc(-c3nc4ccccc4s3)c2)cc1` gave a z-score of 0.0946.

As for `CCOC(=O)Cc1nnc(NC(=O)C(CC)Sc2nnc3c4ccccc4n(C)c3n2)s1` (centres undefined), the z-score is -0.294.

Consider `O=P(OC1CCCCC1)(OC1CCCCC1)C(O)c1ccc(Cl)cc1Cl` (centres undefined), for which the z-score is -0.0565.

For `O=c1oc2cc(Oc3ccc(C(F)(F)F)cc3[N+](=O)[O-])ccc2c2c1CCCC2`, the z-score was 0.234.

For the compound `C#CC[N+](C)(C)CC#Cc1ccc(Cl)cc1`, the z-score came out at 0.842.

In the case of `CCn1c(SCc2nc(-c3ccc(Cl)cc3)no2)nnc1-c1ccco1`, the z-score is -0.0817.

`Cc1[nH]c2ccccc2c1C(=O)CN1CCCC1`: the z-score is -1.99.

Turning to `O=C(N/N=C1\CCCc2ccccc21)c1cccc([N+](=O)[O-])c1`, the z-score was -0.275.

The compound `CC(=O)Oc1cc2c(C(C)=O)coc2c2ccccc12` returned a z-score of 0.821.

With `Cc1nc2[nH]onc2c2nccc(=O)c12`, the z-score is -0.354.

Compound `COc1ccc(Cc2nnc(-c3ccc(F)cc3)o2)cc1OC` had a z-score of 0.266.

Compound `CCn1c(=O)cc(SCC(=O)NCc2ccc(C)o2)c2ccccc21` displayed a z-score of 0.121.

For the compound `Nc1nc(C2CCCCC2)cs1`, the z-score is 0.293.

For the compound `COc1ccccc1OCc1nc(C#N)c(N2CCC(C(N)=O)CC2)o1`, the z-score came to 0.0831.

With `Cc1ccc(C(=O)Nc2ccccc2OC(F)F)cc1`, the z-score is -0.453.

With `CCc1ccc(NC(=O)N(CCCN2CCOCC2)Cc2cccs2)cc1`, the z-score was -0.617.

Regarding `N#Cc1c2c(c(NCc3ccco3)n3c1nc1ccccc13)CCC2`, the z-score is -2.19.

For the compound `CON(C)c1nc(OCC#N)nc(N(C)C)n1`, the z-score came out at 0.0137.

As to `Cc1ccc(CSCC(=O)Nc2c(C)n(C)n(-c3ccccc3)c2=O)cc1`, the z-score is -0.099.

The compound `O=C(COC(=O)CCC1CCCCC1)Nc1ccc(OC(F)F)cc1` had a z-score of 0.594.

Regarding `COc1cc(/C=C2/C(=O)ON=C2c2ccccc2)ccc1O`, the z-score is -0.382.

The compound `COc1ccc(NC(=O)C2CCCN(C)C2)cc1OCC(C)C` (centres undefined) displayed a z-score of 0.0222.

Consider `CC(=O)Nc1ccc(S(=O)(=O)Nc2nc(C)cc(-n3nc(C)cc3C)n2)cc1`, for which the z-score was -0.313.

As to `Cc1cccc(N2CCN(C(=O)C3CCN(S(=O)(=O)c4cccnc4)CC3)CC2)c1C`, the z-score was -0.429.

Take `Cc1cc(-c2c(C)[nH]n(-c3ccc(Cl)cc3)c2=O)n(-c2ccc(Cl)cc2)n1`: the z-score is -0.308.

The compound `O=C1c2ccccc2C(=O)N1c1cccc(-c2nc3ccccc3o2)c1` returned a z-score of 1.29.

Regarding `Cn1c(SCC(=O)c2c(N)n(C)c(=O)n(C)c2=O)nnc1-c1ccccc1`, the z-score is -0.21.

Consider `COc1cc(-c2noc(CCCC(=O)NCc3ccco3)n2)cc(OC)c1OC`, for which the z-score is -0.483.

Turning to `CCOc1ccc(C2NC(=O)c3ccccc3O2)cc1` (centres undefined), the z-score is -0.311.

Turning to `CC(=O)NNC(=S)Nc1cc(S(=O)(=O)N(C)C)ccc1C`, the z-score is -0.102.

`CCc1ccc(N2C(=O)c3cc(N4CCOCC4)c([N+](=O)[O-])cc3C2=O)cc1`: the z-score amounted to 0.302.

`Cc1ccccc1-c1cc(C(=O)Nc2sc(C(=O)OC(C)C)c(C)c2C#N)c2ccccc2n1`: the z-score was -0.876.

Consider `S=c1sc2c(N3CCN(Cc4ccccc4)CC3)ncnc2n1-c1ccccc1`, for which the z-score was 0.467.

For `O=C(Cn1nnc(-c2ccccc2)n1)OC1CCOC1=O` (centres undefined), the z-score is -0.898.

Regarding `O=C(/C=C/c1ccccc1)Nn1cnc2ccccc2c1=O`, the z-score was determined as 0.498.

`COc1ccccc1-n1cnc2cc(NC(=O)c3ccco3)ccc21`: the z-score was -0.134.

In the case of `O=C(NC1CCCC1)C(c1ccc(F)cc1)N(Cc1ccc(F)cc1)C(=O)c1ccn[nH]1` (centres undefined), the z-score was -0.494.

The compound `CCOC(=O)/C=C1\SCC(=O)N1CC(=O)NC(C)C` registered a z-score of 0.775.

As to `O=C(CN1C(=O)NC2(CCc3ccccc3C2)C1=O)Nc1ccc(F)cc1` (centres undefined), the z-score was -0.146.

On to `CCOCCCN1C(=O)C(O)=C(C(C)=O)C1c1cccs1` (centres undefined), for which the z-score was -0.0902.

For `COCCCNc1ncnc2nc[nH]c12`, the z-score was -0.223.

`Cc1cc(C)c(S(=O)(=O)N(CC(=O)NCc2cccnc2)C2CCCCC2)c(C)c1` showed a z-score of 0.497.

As for `CN1C(=O)c2ccccc2C(C(=O)NCCCN2CCCC2=O)C1c1c[nH]c2ccccc12` (centres undefined), the z-score was -0.179.

`CCC1CSC(Nc2ccc(C(=O)/C=C/c3cccc(C)c3)cc2)=N1` (centres undefined): the z-score was -0.0711.

Regarding `CCc1nc2cc([N+](=O)[O-])c([N+](=O)[O-])cc2[nH]1`, the z-score is -0.0776.

In the case of `COCCCNC(CC(=O)Nc1ccccc1C(=O)OC)C(=O)O` (centres undefined), the z-score is 0.0449.

For `Cc1cc(C)n2nc(SCc3cc(=O)n4ccccc4n3)nc2n1`, the z-score was -0.0377.

`COCCCNC(=S)N(Cc1ccccc1)Cc1ccccc1` yielded a z-score of 0.454.

Turning to `Cc1ccc(C2c3c(-c4ccccc4O)n[nH]c3C(=O)N2Cc2ccncc2)cc1` (centres undefined), the z-score stood at 0.0879.

Turning to `O=C(CCl)Nc1ccc(N=Nc2ccccc2)cc1`, the z-score is -0.201.

For `COC(=O)c1ccc(CNCC(=O)Nc2ccc(C(=O)OC)cc2)cc1`, the z-score is -0.0376.

As to `Cc1oc(-c2ccccc2Cl)nc1CSCC(=O)O`, the z-score is -1.11.

As to `COc1ccc(/C=N\NC(=O)/C(=C\Nc2nccc(C)n2)NC(=O)c2ccccc2)cc1`, the z-score is -0.263.

For the compound `O=C(O)Cn1c(-c2ccccc2)nc2ccccc21`, the z-score is -0.223.

With `CC(C)c1ccc(/C=C/C(=O)NC2CCCCC2)cc1`, the z-score is -0.317.

On to `CCOc1[nH]n(-c2ccc(Cl)cc2)c(=O)c1C=Nc1ccc(O)cc1`, for which the z-score is -2.12.

The compound `C=CCn1c(SCC(=O)NCc2ccccc2)nnc1-c1ccccc1O` came in with a z-score of 1.26.

As to `COc1ccc(C2/C(=C(\O)c3ccc4c(c3)OCCO4)C(=O)C(=O)N2CCCN(C)C)cc1` (centres undefined), the z-score worked out at 0.0912.

Compound `O=C(c1cc(S(=O)(=O)N2CCOCC2)ccc1F)N1CCCc2ccccc21` had a z-score of 0.285.

With `COC(=O)c1ccc(NC(=O)CN(C)S(=O)(=O)c2ccc(OC)c(C)c2)cc1`, the z-score was -0.288.

Consider `CCOc1nc(SCCOc2ccc(C)cc2)nc(N(C)C)n1`, for which the z-score was -1.03.

`COc1ccc(/C=N/NC(=O)c2ccccc2)cc1OS(=O)(=O)c1ccccc1`: the z-score was -0.359.

For the compound `CCOC(=O)c1cc(-c2ccco2)nc2c1c(C)nn2-c1cccc(Cl)c1`, the z-score was -0.324.

With `CC(C)Cc1ccc(S(=O)(=O)N2CCOCC2)cc1`, the z-score is -0.131.

Regarding `Cc1cc(C)nc(N(C#N)S(=O)(=O)c2ccc(Br)cc2)n1`, the z-score was -0.212.

On to `CCOc1cc(S(=O)(=O)NCc2ccccc2)ccc1F`, for which the z-score was 0.0209.

Consider `Cc1ccc(S(=O)(=O)NCCC2(C(C)C)CCOC(C)(C)C2)cc1` (centres undefined), for which the z-score is -0.132.

In turn, `Cn1c(C(=O)NCCCN2CCc3ccccc3C2)cc2c(=O)n(C)c3ccccc3c21` had a z-score of 0.807.

For the compound `COc1ccc(NC(=O)N2CCN(c3cccc(C(F)(F)F)c3)CC2)cc1OC`, the z-score is -0.422.

With `O=C(NNc1ccc(C2CCCCC2)cc1)C(O)(c1ccccc1)c1cccs1` (centres undefined), the z-score was found to be 0.285.

Turning to `Cc1ccc2nc(SCC(=O)Nc3ccc4c(c3)OCCO4)[nH]c2c1`, the z-score is -0.404.
